Measurements reported in the supplement of paper PMC11876631.
Positions count from the first letter of the chain named. Names and notes keep the numbering of the source. ± gives the standard deviation of the averaged measurements. Laboratory Escherichia coli strains with one amino-acid change in an essential protein, pooled on minimal glucose agar with carbenicillin or gentamicin at twice the control MIC (plus kanamycin and chloramphenicol for the plasmids), 48 h. Fold change of barcode share against drug-free plates; higher = less susceptible. Active = above 20 in both replicates (the paper's putatively resistant). '<' = one read or none on drug, '>' = one read or none on a drug-free plate. Shares are relative, so most strains fall below 1 when a few take over. Listed are strains with at least 15 reads on both drug-free plates, and hits; most hits rest on fewer reference reads. Replicate rank correlation about 0.5. Edits are read from barcodes.

B1: leuC V32A (protein)
chain: MAKTLYEKLFDAHVVYEAENETPLLYIDRHLAHEVTSPQAFDGLRAHGRPVRQPGKTFATMDHNVSTQTKDINACGEMARIQMQELIKNCKEFGVELYDLNHPYQGIVHVMGPEQGVTLPGMTIVCGDSHTATHGAFGALAFGIGTSEVEHVLATQTLKQGRAKTMKIEVQGKAAPGITAKDIVLAIIGKTGSAGGTGHVVEFCGEAIRDLSMEGRMTLCNMAIEMGAKAGLVAPDETTFNYVKGRLHAPKGKDFDDAVAYWKTLQTDEGATFDTVVTLQAEEISPQVTWGTNPGQVISVNDNIPDPASFADPVERASAEKALAYMGLKPGIPLTEVAIDKVFIGSCTNSRIEDLRAAAEIAKGRKVAPGVQALVVPGSGPVKAQAEAEGLDKIFIEAGFEWRLPGCSMCLAMNNDRLNPGERCASTSNRNFEGRQGRGGRTHLVSPAMAAAAAVTGHFADIRNIK
B2: leuC M111W (protein)
chain: B1 chain with A32V, M111W
B3: leuC V32Q (protein)
chain: B1 chain with A32Q
B4: leuC V110Q (protein)
chain: B1 chain with A32V, V110Q
B5: leuC M111A (protein)
chain: B1 chain with A32V, M111A
B6: leuC V125A (protein)
chain: B1 chain with A32V, V125A
B7: leuC M111D (protein)
chain: B1 chain with A32V, M111D
B8: leuC M111Q (protein)
chain: B1 chain with A32V, M111Q
B9: leuC V110A (protein)
chain: B1 chain with A32V, V110A
B10: leuC V125Q (protein)
chain: B1 chain with A32V, V125Q
B11: leuC V201A (protein)
chain: B1 chain with A32V, V201A

The proteins below were run against Escherichia coli (laboratory strain) (assay: barcode share on antibiotic plates over drug-free plates; higher = less susceptible). Conditions: antibiotic: carbenicillin; 2× MIC (3.1 µg/mL).
Procedure: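 A pool of E. coli strains, each edited to carry one amino-acid change in an essential protein, was grown for 48 h on minimal glucose agar with or without antibiotic; strain barcodes were sequenced; mean of two replicates.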
For B1, the “fold change of barcode share” value was 1.72 ± 0.87. With B2 the “fold change of barcode share” value was 0.338 ± 0.088. With B3 the “fold change of barcode share” value was 1.49 ± 0.62. B4 was tested, and the “fold change of barcode share” value was 1.78 ± 1.4. With B5 the “fold change of barcode share” value was 0.563 ± 0.14. B6 was tested, and the “fold change of barcode share” value was 0.8024 ± 0.0037. With B7 the “fold change of barcode share” value was > 29.4 [active]. In the case of B8, the “fold change of barcode share” value is reported as 1.9 ± 1.3. For B9, the “fold change of barcode share” value was 0.792 ± 0.68. With B10 the “fold change of barcode share” value was 5.54 ± 0.55. In the case of B11, the “fold change of barcode share” value is reported as 0.503 ± 0.18.

Same assay, conditions: antibiotic: gentamicin; 2× MIC (MIC 0.45 µg/mL)
B1 was tested, and the “fold change of barcode share” value was 0.0148 ± 0.0041. With B2 the “fold change of barcode share” value was less than 0.0153. With B3 the “fold change of barcode share” value was 0.0818 ± 0.089. B5 was tested, and the “fold change of barcode share” value was less than 0.0113. B6 was tested, and the “fold change of barcode share” value was 0.00518 ± 0.004. With B8 the “fold change of barcode share” value was less than 0.0144. For B11, the “fold change of barcode share” value was 0.153 ± 0.16.
